{"source": "PubChem BioAssay AID588501", "about": "(NMMLSC, 2011)", "note": "Where “and” joins values, the source holds several entries; their conditions need not be identical. Equal entries are not always repeated. Screen size: about 360,000 compounds; about 420 (0.12%) were called active. This list was built around the results that the source calls inconclusive (neither active nor inactive); the mix of calls is not that of the screen. Rule as the data show it: active = inhibition above about 30%; inconclusive = no clear call, values can overlap the other calls; inactive = below that."}
{"target": "Lethal factor (Bacillus anthracis) (UniProt P15917)", "sequence (P15917 whole entry, looked up)": "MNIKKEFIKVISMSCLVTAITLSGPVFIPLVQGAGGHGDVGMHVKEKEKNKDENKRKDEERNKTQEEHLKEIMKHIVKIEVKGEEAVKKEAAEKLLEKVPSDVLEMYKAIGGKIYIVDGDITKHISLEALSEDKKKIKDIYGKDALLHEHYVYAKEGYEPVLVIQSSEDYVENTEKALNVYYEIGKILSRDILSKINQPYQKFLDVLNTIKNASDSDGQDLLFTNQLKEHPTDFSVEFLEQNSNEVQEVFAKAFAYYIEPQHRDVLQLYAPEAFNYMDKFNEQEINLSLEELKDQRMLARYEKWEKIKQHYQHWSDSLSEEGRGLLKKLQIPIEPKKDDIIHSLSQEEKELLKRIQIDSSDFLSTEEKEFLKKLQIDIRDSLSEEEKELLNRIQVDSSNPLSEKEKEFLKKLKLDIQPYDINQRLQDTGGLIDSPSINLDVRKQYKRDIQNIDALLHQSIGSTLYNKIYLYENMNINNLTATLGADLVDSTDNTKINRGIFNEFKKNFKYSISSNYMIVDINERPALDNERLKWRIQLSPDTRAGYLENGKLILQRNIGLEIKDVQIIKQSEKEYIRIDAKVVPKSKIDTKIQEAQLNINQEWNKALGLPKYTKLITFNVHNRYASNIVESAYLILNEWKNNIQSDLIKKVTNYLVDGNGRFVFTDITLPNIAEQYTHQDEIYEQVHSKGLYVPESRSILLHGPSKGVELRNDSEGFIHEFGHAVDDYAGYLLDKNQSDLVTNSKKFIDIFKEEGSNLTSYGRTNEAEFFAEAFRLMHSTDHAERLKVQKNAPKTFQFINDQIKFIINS", "assay": "anthrax lethal factor cleavage blockers – biochemical, multiplex microsphere, MLPCN library, primary screen (AID 588501); also: plate controls were buffer without enzyme for full effect and enzyme alone for no effect", "conditions": "multiplex microsphere protease cleavage assay, LF; at 10 µM; hits give high values"}
{"smiles": "CNC(=O)C(C)c1ncc(C(F)(F)F)cc1Cl", "note": "(stereo not drawn)", "inhibition": "inactive: 1.8%"}
{"smiles": "CC1=NCCN1CCNC(=O)Nc1cc(C)cc(C)c1", "inhibition": "inconclusive: -9.6%"}
{"smiles": "O=C(N/N=C/c1ccccc1[N+](=O)[O-])c1ccc2nc[nH]c2c1", "inhibition": "inconclusive: 3.6%"}
{"smiles": "CCN1C(c2ccccc2)=C(c2ccccc2)S/C1=C/C=C1\\SC(=S)N(C)C1=O", "inhibition": "active: 41.3%"}
{"smiles": "COc1ccccc1C(=O)Nc1ccc2c(c1)nc(CN1CCN(C(C)=O)CC1)n2C", "inhibition": "inconclusive: -16%"}
{"smiles": "CCCSc1nnc(NC(=O)Nc2ccc(C)cc2)s1", "inhibition": "inconclusive: -4%"}
{"smiles": "COC(=O)C[n+]1cccc2ccccc21", "inhibition": "active: 29.8%"}
{"smiles": "Cc1cccc(C)c1C(O)c1ncc(-c2ccccc2F)[nH]1", "note": "(stereo not drawn)", "inhibition": "inactive: -1.9%"}
{"smiles": "Cc1ccnc(NC(=O)CCCNC(=O)c2ccc(Cl)cc2)c1", "inhibition": "inconclusive: -3.9%"}
{"smiles": "CC1(C(=O)NS(=O)(=O)c2ccc(Cl)s2)CCN1C(=O)Cc1ccc(-c2ccccc2)cc1", "note": "(stereo not drawn)", "inhibition": "inactive: -8.3%"}
{"smiles": "CC(Oc1ccccc1Cl)C(=O)Nc1ccc(S(=O)(=O)Nc2nccs2)cc1", "note": "(stereo not drawn)", "inhibition": "inactive: -5.7%"}
{"smiles": "O=C(Nc1ccccc1)NC1CCCCNC1=O", "note": "(stereo not drawn)", "inhibition": "inconclusive: -28.1%"}
{"smiles": "COc1ccc(CNC(=O)COc2ccc(S(=O)(=O)N3CCOCC3)cc2)cc1", "inhibition": "inconclusive: -0.8%"}
{"smiles": "Cc1ccc(S(=O)(=O)N(CC(O)CN2C(=O)NC(C)(C)C2=O)c2ccccc2)cc1", "note": "(stereo not drawn)", "inhibition": "inactive: 1%"}
{"smiles": "C=CCn1c(=N)c(S(=O)(=O)c2ccc(C)c(C)c2)cc2c(=O)n3ccccc3nc21", "inhibition": "inactive: 0.7%"}
{"smiles": "COc1ccc(C(=O)NNC(=O)CN(C)S(=O)(=O)c2ccc(Cl)cc2)c(OC)c1OC", "inhibition": "inconclusive: -0.5%"}
{"smiles": "COc1ccc(CNC(=O)COC(=O)c2ccc(C)c(S(=O)(=O)N3CCOCC3)c2)cc1OC", "inhibition": "inconclusive: -2.8%"}
{"smiles": "Cc1onc(-c2c(F)cccc2Cl)c1C(=O)Nc1cccc(Cn2cccn2)c1", "inhibition": "inactive: -4.5%"}
{"smiles": "OCC[n+]1c2ccccc2nc2ccc(N3CCOCC3)cc21", "inhibition": "inconclusive: -5.8%"}
{"smiles": "O=[N+]([O-])c1c(NCc2ccco2)ccc2nonc12", "inhibition": "inconclusive: -16.5%"}
{"smiles": "CCC1(c2ccccc2)NC(=O)N(CC(=O)Nc2ccccc2C(=O)NC2CC2)C1=O", "note": "(stereo not drawn)", "inhibition": "inconclusive: -0.8%"}
{"smiles": "CC(C)(C)OC(=O)NC(Cc1ccccc1)C(=O)NC(CSC1CCCCO1)C(=O)NN", "note": "(stereo not drawn)", "inhibition": "active: 39.5%"}
{"smiles": "O=C(NC(=S)Nc1ccccc1N1CCCC1)c1ccco1", "inhibition": "inconclusive: -9.5%"}
{"smiles": "COc1ccc(C(=O)N=C2SC3CS(=O)(=O)CC3N2Cc2ccc(F)cc2)cc1", "note": "(stereo not drawn)", "inhibition": "inactive: -1.5%"}
{"smiles": "CN1CCc2c(c(N3CCCCC3)nc3n[nH]c(N)c23)C1", "inhibition": "inactive: -0.8%"}
{"smiles": "COC(=O)c1c(C(=O)c2ccc(Br)cc2)n(C)c2ccccc12", "inhibition": "inconclusive: 5.9%"}
{"smiles": "CCOC(=O)c1sc(=S)n(-c2ccccc2)c1SC", "inhibition": "inactive: -1.2%"}
{"smiles": "O=C(CCCn1nnnc1CN1CCOCC1)N1CCC(c2ccc(F)cc2)C1", "note": "(stereo not drawn)", "inhibition": "inactive: 4.2%"}
{"smiles": "COc1cccc(C(=O)NCCS(=O)(=O)NCc2cccs2)c1", "inhibition": "inconclusive: 4.8%"}
{"smiles": "COCCCN1C(=O)N(c2ccc(F)cc2)C(=O)C1CC(=O)Nc1ccccc1", "note": "(stereo not drawn)", "inhibition": "inactive: -9%"}
{"smiles": "O=C(CCC(=O)N(CC(=O)NC1CCCC1)C1CCCC1)Nc1ccccn1", "inhibition": "inconclusive: 11.5%"}
{"smiles": "COc1ccc(-n2c(=O)c(CCC(=O)N3CCN(c4ccccc4O)CC3)nc3ccccc32)cc1", "inhibition": "inconclusive: -5%"}
{"smiles": "CN1CCN2c3ccccc3CC(C#N)(C#N)C2C1", "note": "(stereo not drawn)", "inhibition": "inactive: -1.5%"}
{"smiles": "CCOC(=O)Nc1ccc2c(c1)Nc1ccccc1S2", "inhibition": "inactive: -2.5%"}
{"smiles": "C/C(=N\\NC(=O)c1cccc(S(=O)(=O)N2CCOCC2)c1)c1ccc(OCC(=O)N(C)C)cc1", "inhibition": "inconclusive: -5.1%"}
{"smiles": "Cc1noc(C)c1COC(=O)c1cc2c3ccccc3n(C)c2s1", "inhibition": "inconclusive: 40.6%"}
{"smiles": "COc1ccc(OC)c2c1C(=O)CC2C", "note": "(stereo not drawn)", "inhibition": "inactive: -5.4%"}
{"smiles": "NS(=O)(=O)c1ccc(NNC(=O)c2sccc2Cl)cc1", "inhibition": "inconclusive: 5.9%"}
{"smiles": "CCn1c(SCC(N)=O)nnc1-c1ccc(S(=O)(=O)N2CCN(C)CC2)cc1", "inhibition": "inconclusive: -24.9%"}
{"smiles": "CC1CN(S(=O)(=O)c2ccc(C(=O)OCc3ccc(C#N)cc3)cc2)CC(C)O1", "note": "(stereo not drawn)", "inhibition": "inconclusive: -0.5%"}
{"smiles": "COCCNc1nc(NCCN2CCNC2=O)c2sc(-c3ccccc3)cc2n1", "inhibition": "inactive: -3.7%"}
{"smiles": "COc1ccccc1N(C)S(=O)(=O)c1ccc(C(=O)Nc2nnc(C)s2)cc1", "inhibition": "inconclusive: 3.8%"}
{"smiles": "O=C(O)/C=C\\C(=O)Nc1ccc(N2CCN(c3cccc(Cl)c3)CC2)cc1", "inhibition": "inactive: -6%"}
{"smiles": "Cc1ccc(/C=N/n2cnnc2)s1", "inhibition": "inconclusive: -12.9%"}
{"smiles": "Cc1ccc(S(=O)(=O)N2CCOCC2)cc1NC(=O)CSc1ncccn1", "inhibition": "inconclusive: 3.9%"}
{"smiles": "Cc1ccc(S(=O)(=O)N2CCC(C(=O)OC3CCOC3=O)CC2)cc1C", "note": "(stereo not drawn)", "inhibition": "inconclusive: 0.8%"}
{"smiles": "COc1cc(CNC(=O)c2cc(C(=O)NCc3cc(OC)cc(OC)c3)n(C)n2)cc(OC)c1", "inhibition": "inconclusive: 0%"}
{"smiles": "CC(=NNC(=S)N1CCCCC1)c1ccccn1", "inhibition": "active: 87.1%"}
{"smiles": "O=C1NC[C@H](CCCCN2C[C@H](Cc3ccc(O)cc3)N(CCc3ccccc3)C(=O)C2=O)N(CCc2ccccc2)C1=O", "inhibition": "inactive: -11.9%"}
{"smiles": "O=C(OCc1ccc(F)cc1)c1cc(S(=O)(=O)N2CCCCC2)ccc1N1CCOCC1", "inhibition": "inconclusive: -0.1%"}
{"smiles": "Cc1ccc(S(=O)(=O)CCC(=O)OCC(=O)Nc2cc(F)ccc2C)cc1", "inhibition": "inactive: -1.4%"}
{"smiles": "CCN(CC(=O)Nc1ccc2c(c1)OCCO2)C(=O)/C=C/c1ccc(OC)c(OC)c1", "inhibition": "inconclusive: 7%"}
{"smiles": "CC(C)c1ccccc1NC(=O)COC(=O)c1cc([N+](=O)[O-])ccc1N1CCOCC1", "inhibition": "inconclusive: -0.1%"}
{"smiles": "O=C1c2ccccc2C(=O)N1CCN1CCc2ccccc21", "inhibition": "inconclusive: -9.4%"}
{"smiles": "COc1c(F)cccc1C1=CC(=O)C[C@H](c2ccc3c(c2)OCO3)C1", "inhibition": "inactive: -7.1%"}
{"smiles": "Cc1ccc(C2(CC(=O)O)CCOC(C)(C)C2)cc1", "note": "(stereo not drawn)", "inhibition": "inactive: 0.7%"}
{"smiles": "Cc1cccc(C2NS(=O)(=O)N=C2N)c1", "note": "(stereo not drawn)", "inhibition": "inconclusive: 17.2%"}
{"smiles": "Cc1ccc(-n2ncc3c(N4CCN(c5ccccc5)CC4)ncnc32)c(C)c1", "inhibition": "inconclusive: -4.1%"}
{"smiles": "COc1cc(C(c2c(C)[nH][nH]c2=O)c2c(C)[nH][nH]c2=O)ccc1OC(=O)c1cccc([N+](=O)[O-])c1", "inhibition": "inactive: -3%"}
{"smiles": "CCOc1ccc(OCCCC(=O)NC2=NCCS2)cc1", "inhibition": "inconclusive: -8.7%"}
{"smiles": "CCCCCCCCCCOC(=O)C[N+](C)(C)CC1CCCCC1O", "note": "(stereo not drawn)", "inhibition": "inconclusive: -1.6%"}
{"smiles": "NCCc1nnc(SCc2ccccc2Cl)o1", "inhibition": "inconclusive: 7.1%"}
{"smiles": "COCCCNC(=O)C1CCN(S(=O)(=O)c2c(C)noc2/C=C\\c2ccc(OC)cc2)CC1", "inhibition": "inconclusive: -16.3%"}
{"smiles": "CC(=O)/C(=C\\N(C)C)Sc1ccc(C)cc1", "inhibition": "inconclusive: -1.7%"}
{"smiles": "CC(=O)Nc1ccc(CC(=O)N2CCN(Cc3ccccc3)CC2)cc1", "inhibition": "inactive: -5.6%"}
{"smiles": "CCCCn1c(N)c(N(CCOC)C(=O)CSc2nnc(-c3ccc(F)cc3)n2N)c(=O)[nH]c1=O", "inhibition": "inconclusive: 0.4%"}
{"smiles": "CN1\\C(=C/C=C/C=C/C=[N+](C)C)C(C)(C)c2ccccc21", "inhibition": "inconclusive: -45.7%"}
{"smiles": "CC(=O)N1CCN(S(=O)(=O)c2cccc(C(=O)Nc3ccccc3N3CCCC3)c2)CC1", "inhibition": "inconclusive: 1.1%"}
{"smiles": "O=C1CC(c2ccc(F)cc2)Sc2ccccc2N1", "note": "(stereo not drawn)", "inhibition": "inconclusive: 5.2%"}
{"smiles": "CCN(CC)c1ccc(/C=C/C(=O)C2C(=O)C=C(C)OC2=O)cc1", "note": "(stereo not drawn)", "inhibition": "active: 73%"}
{"smiles": "CCN(C(=O)COc1nc(C)cc(C)c1C#N)c1ccccc1", "inhibition": "active: 37.5%"}
{"smiles": "C=CCn1c(SCC(=O)NC2CCCC2)nnc1-c1ccccn1", "inhibition": "inconclusive: 2.1%"}
{"smiles": "CCCSc1nnc2n(N)c(=O)c3ccccc3n12", "inhibition": "inactive: 2.2%"}
{"smiles": "COc1ccc(S(=O)(=O)N2CCC[C@H]2C(=O)NC2=NCCS2)cc1", "inhibition": "inconclusive: -17.1%"}
{"smiles": "CCn1c(=O)cc(OCC(=O)N(C)C2CCCCC2)c2ccccc21", "inhibition": "inconclusive: -12.1%"}
{"smiles": "Oc1c(C=C2N=c3ccccc3=N2)sc(=S)n1-c1ccc(F)cc1", "inhibition": "active: 53.7% and active: 34.4%"}
{"smiles": "O=C1N(c2ccccc2)c2ccccc2C1(O)C(F)(F)F", "note": "(stereo not drawn)", "inhibition": "active: 35.9%"}
{"smiles": "CCOc1cc(CNCCc2ccc(S(N)(=O)=O)cc2)cc(Cl)c1OCc1ccccc1", "inhibition": "inactive: -6.6%"}
{"smiles": "COc1ccc(-n2nnnc2CNC(=O)C(=O)c2c(C)[nH]c3ccccc23)cc1", "inhibition": "inconclusive: 4.9%"}
{"smiles": "COc1ccc(OCCn2cc(/C=C(\\C#N)C(=O)NCc3ccco3)c3ccccc32)cc1", "inhibition": "inactive: 0.2%"}
{"smiles": "CN1CCN(S(=O)(=O)c2cccc(C(=O)NCCC3=CCCCC3)c2)CC1", "inhibition": "inconclusive: 4.5%"}
{"smiles": "CCOc1ccc(OCC(=O)OC(C)C(=O)Nc2ccc(Cl)cn2)cc1", "note": "(stereo not drawn)", "inhibition": "inconclusive: -1.1%"}
{"smiles": "O=C(CCC(=O)c1ccc(F)cc1)Nc1cccc(S(=O)(=O)Nc2cccc(Cl)c2)c1", "inhibition": "inactive: -0.1%"}
{"smiles": "Cc1cc(C(=O)N/N=C/c2cccnc2)n[nH]1", "inhibition": "inconclusive: -17.9%"}
{"smiles": "CCc1ccc([C@@H]2C[C@H]3[C@@H](CN2S(=O)(=O)c2ccc(C)cc2)C(=O)C[C@@H](c2cccc(Cl)c2)N3S(=O)(=O)c2ccc(C)cc2)cc1", "inhibition": "inactive: -0.1%"}
{"smiles": "O=C(NCC1CCCN1S(=O)(=O)c1cccs1)C(=O)Nc1ccc(F)cc1F", "note": "(stereo not drawn)", "inhibition": "inconclusive: -5.3%"}
{"smiles": "CC(=O)c1nn(-c2cccc(Br)c2)cc1C(=O)c1ccc(C)cc1", "inhibition": "inconclusive: -39.9%"}
{"smiles": "CC(C)n1cc(/C(N)=N/O)c(=O)n(Cc2ccccc2)c1=O", "inhibition": "inconclusive: 2.9%"}
